In PMC4336329 (PLoS ONE, 2015):
Screen size: about 310,000 compounds; about 14,000 (4.5%) showed an effect of 50% or more. The effect is printed as a negative number. The list shows a part of the results.

Target: human ether-à-go-go-related gene (hERG) potassium channel (human, UniProt Q12809)
Assay: primary screen, population patch clamp on CHO cells stably expressing hERG
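Also: peak tail current of the secondary pulse compared with the same well before compound.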

Chain of human ether-à-go-go-related gene (hERG) potassium channel (Q12809 whole entry, looked up): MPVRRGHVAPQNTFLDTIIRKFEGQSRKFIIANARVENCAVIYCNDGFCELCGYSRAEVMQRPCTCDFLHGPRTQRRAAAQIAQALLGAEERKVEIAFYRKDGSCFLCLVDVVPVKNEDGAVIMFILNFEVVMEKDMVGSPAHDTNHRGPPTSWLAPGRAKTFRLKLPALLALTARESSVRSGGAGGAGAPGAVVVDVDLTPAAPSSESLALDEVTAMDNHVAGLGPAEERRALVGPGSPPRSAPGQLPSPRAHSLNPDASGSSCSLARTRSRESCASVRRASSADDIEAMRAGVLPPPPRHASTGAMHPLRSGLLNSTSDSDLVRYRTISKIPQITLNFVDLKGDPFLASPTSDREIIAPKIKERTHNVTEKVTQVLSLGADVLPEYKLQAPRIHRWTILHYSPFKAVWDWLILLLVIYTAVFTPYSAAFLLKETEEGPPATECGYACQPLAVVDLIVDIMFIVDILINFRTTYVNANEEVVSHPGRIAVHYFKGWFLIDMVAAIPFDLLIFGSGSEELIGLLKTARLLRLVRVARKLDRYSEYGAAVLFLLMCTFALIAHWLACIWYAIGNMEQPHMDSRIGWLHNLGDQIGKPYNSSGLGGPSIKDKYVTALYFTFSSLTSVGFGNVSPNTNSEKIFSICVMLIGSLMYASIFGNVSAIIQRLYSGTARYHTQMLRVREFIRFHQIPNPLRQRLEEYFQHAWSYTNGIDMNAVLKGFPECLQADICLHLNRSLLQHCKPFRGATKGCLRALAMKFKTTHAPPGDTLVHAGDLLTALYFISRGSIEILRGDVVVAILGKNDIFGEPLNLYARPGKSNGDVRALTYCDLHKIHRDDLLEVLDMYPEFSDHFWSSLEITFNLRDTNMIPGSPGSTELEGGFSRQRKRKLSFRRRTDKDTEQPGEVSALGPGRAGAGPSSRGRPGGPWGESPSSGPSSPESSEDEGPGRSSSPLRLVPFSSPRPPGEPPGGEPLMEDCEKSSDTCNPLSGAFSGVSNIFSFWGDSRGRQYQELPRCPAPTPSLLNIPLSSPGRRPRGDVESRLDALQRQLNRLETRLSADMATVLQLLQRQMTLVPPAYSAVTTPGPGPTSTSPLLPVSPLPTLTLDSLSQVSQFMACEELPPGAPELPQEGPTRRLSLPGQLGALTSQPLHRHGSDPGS

Row | Compound | hERG current change (%, negative = inhibition) at 10uM [%]
1 | COCCSc1nnc(NS(=O)(=O)c2ccc(F)cc2)s1 | 3.84
2 | S=c1[nH]nc(-c2ccccn2)n1/N=C/c1ccco1 | 20.3
3 | COCCN(CCOC)Cc1c(O)ccc2c3c(c(=O)oc12)CCC3 | -18
4 | CC(=O)OC(/C(O)=C(\C#N)c1nc2ccccc2[nH]1)c1ccccc1 (centres unmarked) | -2.85
5 | Brc1ccc(OCc2nnc(SCC3CCCCC3)o2)cc1 | 11.1
6 | CCC(CC)NCc1c[nH]c2ccccc12.O=C(O)C(=O)O | -3.29
7 | O=C(NCc1cccnc1)c1ccc(-c2cc(Cl)ccc2Cl)o1 | -41.4
8 | O=S(=O)(c1ccc(SCc2ccc(Cl)cc2)nc1)N1CCCC1 | -8.21
9 | CC(C)CC(=O)Nc1ccc(-c2nc3ccccc3c(=O)[nH]2)cc1 | 26.7
10 | O=C1C=C(NCc2ccc(Cl)cc2)CC(c2ccco2)C1 (centres unmarked) | -82.2
11 | CCOc1ccc(/C=C2\SC(=S)N(NS(=O)(=O)c3ccc(C)cc3)C2=O)cc1OC | -12.6
12 | CSc1ccccc1C(=O)NCCSc1ccc(C)cc1 | -15
13 | COC(=O)COc1c(Cl)cc(C(c2c(C)[nH][nH]c2=O)c2c(C)[nH][nH]c2=O)cc1OC | 14.5
14 | CC(C(=O)O)N1C(=O)/C(=C/c2cccn2C)SC1=S (centres unmarked) | 3.33
15 | CCc1cccc2sc(N(CCCN3CCOCC3)C(=O)CS(=O)(=O)c3ccccc3)nc12.Cl | -7.03
16 | COc1cc(Cl)c(CC(=O)c2c[nH]c3ccccc23)cc1OC | 15.9
17 | CC1CC(C)CN(S(=O)(=O)c2ccc(C(=O)Nc3nnc(-c4cccs4)o3)cc2)C1 (centres unmarked) | 5
18 | O=C(c1cccc(C(F)(F)F)c1)N1CCC(O)(CS(=O)(=O)Cc2ccccc2Cl)CC1 | -8.87
19 | CC(=O)NC1CCN(CC(=O)Nc2cccc([N+](=O)[O-])c2)CC1 | 18.7
20 | COc1ccc(NC(=O)CSc2nnc(Cc3cccn3C)n2-c2ccc(F)cc2)cc1OC | 0.618
21 | COc1ccccc1C(=O)NC(=O)COC(=O)c1ccc(Cl)cc1[N+](=O)[O-] | 21.6
22 | Cc1nc2c(C(=O)NCc3ccccc3)c[nH]n2c(=O)c1Cl | 22.6
23 | CC(C)(C)OC(=O)N1CCC(c2c(C(=O)N3CCN(C4CCCCC4)CC3)cnn2-c2ccc(F)cc2)CC1 | -55.5

Row | Compound | hERG current change (%, negative = inhibition) at 10uM [%]
24 | O=C1NCCN1CCNS(=O)(=O)c1ccccc1[N+](=O)[O-] | 15.8
25 | COc1cc(O)cc2occ(-c3ccc(O)cc3)c(=O)c12 | -2.1
26 | Cc1cc(C)n(-c2nnc(NCc3ccc(Cl)cc3)nn2)n1 | 7.72
27 | CC(CC(=O)NNC(=O)c1ccncc1)c1ccccc1 (centres unmarked) | 16.3
28 | c1ccc(-c2nnc(OCc3cccnc3)c3ccccc23)cc1 | -83.2
29 | CC(C)CC1(C(=O)NCCN2CCOCC2)C=CCN1C(=O)c1ccccc1 (centres unmarked) | 25.1
30 | CCN=C(Nc1ccc(Cl)cc1)c1cccnc1 | -2.16
31 | COc1ccc(OCC(=O)Nc2ccccc2OC(F)F)cc1 | -22.2
32 | O=[N+]([O-])c1ccc(SCc2c(F)cccc2Cl)nc1 | 6.11
33 | Cc1cc(C)nc(/N=C2\NC(=O)CC(C(=O)O)N2c2ccc(Cl)cc2Cl)n1 (centres unmarked) | -0.63
34 | CNc1oc(-c2ccc(OCc3ccccc3)cc2)nc1C#N | 18.3
35 | CCN1CCCC1CNC(=O)CCNC(=O)c1cc(OC)c(OC)c(OC)c1 (centres unmarked) | -15.2
36 | CC(=O)Nc1ccc(NC(=O)CSc2nnc(CC(C)O)n2-c2ccccc2)cc1 (centres unmarked) | 10.2
37 | COc1cccc(OCc2cc(C(=O)N3CCN(C4CCCCC4)C(=O)C3)no2)c1 | -3.09
38 | O=C(CN1CCCCCCC1)Nc1cc(Cl)cc(Cl)c1 | 1.75
39 | COc1cccc(NS(=O)(=O)c2ccc3c(c2)N(C(C)=O)CCO3)c1 | 8.67
40 | Cc1ccc(NC(=O)CS(=O)CC(=O)NC(C)CCc2ccco2)cc1Cl (centres unmarked) | -20.1
41 | Cc1cc(C)c(C(N)=O)c(Nc2ccc(F)cc2)n1 | 15.6
42 | CN(C1CCCCC1)S(=O)(=O)c1ccc(S(=O)(=O)N2CCCC2)cc1 | 5.01
43 | C=CCn1c(=O)c(C=Nc2cccnc2Cl)c(O)n(CCCC)c1=O | -5.65
44 | C=CCn1c(O)c(C(CC)=NCC2CCCO2)c(=O)[nH]c1=O (centres unmarked) | 3.61
45 | CC(=O)NCC1CCCN(C(=O)c2ccc(OC3CCN(Cc4ccccn4)CC3)cc2)C1 (centres unmarked) | 25.8
46 | c1ccc(Nc2nc3ccccc3[nH]2)nc1 | -2.35

Row | Compound | hERG current change (%, negative = inhibition) at 10uM [%]
47 | NC(=O)CSc1nnc(-c2ccc(S(=O)(=O)N3CCOCC3)cc2)n1CC1CCCO1 (centres unmarked) | -6.19
48 | c1ccc2nc(-c3ccc4c(c3)OCO4)ccc2c1 | 10.2
49 | Cc1ccccc1S(=O)(=O)Nc1ncnc2ccccc12 | 5.21
50 | CC(C)C(=O)Nc1cccc(-c2nc3ccccc3c(=O)o2)c1 | -3.14
51 | Cc1cc(C)c(NC(=O)CN(C)C(C)C(=O)N2CCc3ccccc32)c(C)c1 (centres unmarked) | -50.3
52 | Cc1ccc(S(=O)(=O)N2CCC(=O)N(C(CO)C(C)C)CC2)cc1 (centres unmarked) | -8.73
53 | Cc1ccc(/C=C/C(=O)O)cc1S(=O)(=O)NCCO | 8.85
54 | Cc1ccc(CN2C(=O)N/C(=C/c3cc(C)n(-c4ccccn4)c3C)C2=O)cc1 | 1.54
55 | COc1ccc(CC(=O)NC2=NCCS2)cc1 | 3.1
56 | OCCN1CCN(c2nc(-c3ccccc3)c3cc(Br)ccc3n2)CC1 | -47.7
57 | CCCc1nc2ccc(NC(=O)c3cccs3)cc2c(=O)n1Cc1ccccc1Cl | 1.8
58 | COc1ccc(C2=NO[C@@](CC(=O)O)(C(=O)Nc3ccc4c(c3)OCCO4)C2)cc1 | 13.1
59 | CC(C)(C)C(=O)/C=C1\NC(=O)CS1 | 17.4
60 | COC(=O)CCCCC1SCC(NC(=O)c2ccccc2)C1OC(C)=O (centres unmarked) | 26.5
61 | CCc1cccc(CC)c1NC(=O)C(CC)Sc1nc2ccncc2[nH]1 (centres unmarked) | -10.9
62 | CCOC(=O)CNC(=O)Cc1ccc(OC)cc1 | 19.6
63 | NNC(=O)Cc1csc(-c2ccccc2)n1 | 5.22
64 | NC(=O)CC(NC(=O)Cc1ccc(Cl)cc1)c1ccc(NCC2CC2)c([N+](=O)[O-])c1 (centres unmarked) | -41.7
65 | Cc1csc(SCC(=O)Nc2ccccn2)n1 | -14.9
66 | CC(=O)c1ccccc1OC(=O)c1c(F)cccc1F | 13.9
67 | CC1=NN2C(=N)/C(=C\c3cc(C)n(Cc4ccccc4)c3C)C(=O)N=C2S1 | 13.6
68 | Nc1nnc(CC(=O)N/N=C/c2ccc([N+](=O)[O-])cc2)s1 | 5.59
69 | CC12CCC(C(=O)Nc3c(Cl)cccc3Cl)(C(Br)C1=O)C2(C)C (centres unmarked) | 7.19

Row | Compound | hERG current change (%, negative = inhibition) at 10uM [%]
70 | COc1ccc(NC(=O)CN(C)S(=O)(=O)c2ccccc2)cc1OC | -1.21
71 | Cc1cc(-c2ccccc2)c2c3c(c(-c4ccccc4)n2n1)c(=O)n(C)c(=O)n3C | -2.93
72 | CCc1ccc2[nH]c(=O)c(-c3ccccc3)c(O)c2c1 | 17.5
73 | COc1ccc(C(C)=O)cc1CSc1nc2cc(C(=O)O)ccc2c(=O)n1Cc1ccccc1 | 12.7
74 | Cc1cc(C)nc(N2N=C(C(F)(F)F)CC2=O)n1 | 1.13
75 | Cc1ccc(NC(=O)CNC(=O)c2cccc(Cl)c2)nc1 | 6.68
76 | Cc1c(C(=O)O)oc2c3c(ccc12)OCCO3 | 8.12
77 | CC(C)CCN(C(=O)c1csnn1)C(C(=O)NC1CCCC1)c1ccc(F)cc1 (centres unmarked) | -20.4
78 | Cn1cc(/C=N/NC(=O)c2cccc([N+](=O)[O-])c2)c2ccccc21 | 14.8
79 | CCC1=C/C(=C\c2ccc3c(c2)OCO3)C(=O)S1 | 11.1
80 | Cn1c(SCCCC(=O)c2ccc(Br)cc2)nnc1-c1ccncc1 | -70.2
81 | Cc1ccc(-n2c(C)cc(C(=O)CN3C(=O)C(=O)N(C4CCCC4)C3=O)c2C)cc1 | 8.15
82 | COCCN(C(=O)CSc1nc(N)cc(=O)[nH]1)c1c(N)n(Cc2ccccc2)c(=O)[nH]c1=O | 1.93
83 | Cc1ccc2c(c1)OC(=O)CC2c1ccccc1 (centres unmarked) | -6.26
84 | Cc1ccc(NC(=O)Cn2nnc(C(=O)NCc3cccs3)c2N)cc1F | 19.1
85 | COC(=O)c1cc2ccccc2c(-c2c(OC)c(C(=O)OC)cc3ccccc23)c1OC | -8.66
86 | S=c1[nH]nc(-c2cccnc2)n1-c1ccc2c(c1)OCCO2 | 13.2
87 | COc1cccc2cc(S(=O)(=O)c3ccccc3)c(=Nc3ccc4c(c3)OCCO4)oc12 | 3.79
88 | O=C(Nc1ccc(-c2ccc3nncn3n2)cc1)c1ccc(Br)o1 | -9.75
89 | O=C(N/N=C/c1cc(Br)ccc1OC(=O)c1ccc(Br)cc1)c1ccncc1 | -1.47
